According to article PMC12136788:
The other results are listed elsewhere or left out.

B1: 26887325_26887445_518_CDS_ENSG00000120159_ENST00000333916|human|control|control (ssRNA)
RNA: GGGAGUUCUACAGUCCGACGAUCAAGCAUCUUCUGUAACUUUUUCUCUCCUAUAAUACAGAAGCACUGCUGAAGCAUUUCUUUUUUGUCUGAUAUAUAGAAACUAACUGGUUUCAAUGACACAGUCAGGUCCAGUCCACCUUCCAACAGAGGAUUGAGCAUCA
B2: chr1:243289802:243289803:-_ENSG00000143702_ENST00000366542|hu_hu|motif|central (ssRNA)
RNA: GGGAGUUCUACAGUCCGACGAUCAAGAGAAAGUCAUUCUUGUACUGUAACAUCUUCCUCUUCCCCAUCGGGGUUGAAUCGGUUGAAAUGUAUACUGAAAUCAGCCUCAGAUUCAGCAUUCUCAAAUUCAGCUGCGGCUGAAACCAACAGAGGAUUGAGCAUCA
B3: chr4:59614313:59614314:+_ENSMUSG00000028383_ENSMUST00000030078|mus_hu|FALSE|FALSE (ssRNA)
RNA: GGGAGUUCUACAGUCCGACGAUCGUUGCCAGUAAAACUUUUUGGCUUUUGGAAAAUGGAAUAUGCUGCAUCUGCAAUGAUAUCAACUUUUCUACACUGGCUUUCGAUACCAGGUCCUCCCAGCAUAUCCAUAGCAGCAGUGUGCAACAGAGGAUUGAGCAUCA
B4: chr7:112959530:112959531:-_ENSMUSG00000030879_ENSMUST00000124482|mus_mus|FALSE|FALSE (ssRNA)
RNA: GGGAGUUCUACAGUCCGACGAUCGGCAGCCAGCGACAACCUCAUGCUCUCACCUCAGCCCCUCCUCUCGGGGGCCCGGAAAGGGAAACUCCGAGCUGUGUGUGCGCGCGCGGGGAGAGGGGGAGCAGAGGGGCGGAGGCACGUCAACAGAGGAUUGAGCAUCA
B5: chr5:79734569:79734570:+_ENSG00000039319_ENST00000505560|hu_hu|FALSE|FALSE (ssRNA)
RNA: GGGAGUUCUACAGUCCGACGAUCACUUUCUAUAUCAAUGUAAUUAGAGUUGAAGCUAACCUGUGGAUCAGCUGUAGAAUCUAUAGCACAAGUGAUUGGAACAACGGUAUCUGCUGUGCUGGGUUCACUUUCUAUUGUAUCUGGCAACAGAGGAUUGAGCAUCA
B6: chr1:25124269:25124270:+_ENSG00000169504_ENST00000374379|hu_hu|motif|central (ssRNA)
RNA: GGGAGUUCUACAGUCCGACGAUCUACAACUCCUUUGAGCCAAAGAAUCAUGAAGAGCCUCUGGGAAAAGGGGCAGUUUCCGGUGCUUUCACCAUCACUGCCAGCCUUGACGAAGAGCUCGAUGAGGGGCUCUUUGUCCUCCUCCAACAGAGGAUUGAGCAUCA
B7: 63429841_63574422_457_ncRNA_ENSMUSG00000023965_ENSMUST00000169134|mouse|control|control (ssRNA)
RNA: GGGAGUUCUACAGUCCGACGAUCUGUGAUUUCUUUACACCAUCCGACGUCCACAGUCUCUAUGGUCACGCUGUAUCGCCCAAUGGCUAUCAGUGCAUAAUCAGUGAUCUUACAGGACACCAGGUACAGCUCUUUCAGGUUCUGCAACAGAGGAUUGAGCAUCA
B8: chr1:55207850:55207851:+_ENSMUSG00000025979_ENSMUST00000162364|mus_mus|FALSE|FALSE (ssRNA)
RNA: GGGAGUUCUACAGUCCGACGAUCCCGGUGAUGAAAAUAGGCAUGUGAAAAUAUUCUAUAAAUCCUACGGCACACUGAUCCUAGUUUUGCUACAGAUGAUUCUUUUAUGCUAACCCUGCUGGGAAAAUAUUUAUUGCUAUUCAGCAACAGAGGAUUGAGCAUCA
B9: chr12:97337435:97337436:+_ENSG00000139350_ENST00000266742|hu_mus|FALSE|FALSE (ssRNA)
RNA: GGGAGUUCUACAGUCCGACGAUCAGACUCAGCUGACGGCUCAUGGCUUUCAUUCUCUUCUUUCCCUGAAGAUCCCAUGAGGACAUUAAGAGGGCUGGAGUGCAGCACCAGACUGCUGGAGGCACCUGCAUUCUUCCUCAGAGGCAACAGAGGAUUGAGCAUCA
B10: chr6:114281168:114281169:-_ENSG00000196591_ENST00000368632|hu_hu|hu_hu_hu_mus_True|1_88 (ssRNA)
RNA: GGGAGUUCUACAGUCCGACGAUCUUCCAUUUUUCGGUAUAAACCAUAAUUUAACAGCAAGUUAUGAGUCAUCCGGAUUCUAUGAGGCUUCAUGGGAUGACCCUGGCCAUAAUAAUAAUUGCCAAUAUCACCAUCAUACUAGAACAACAGAGGAUUGAGCAUCA
B11: chr1:43162399:43162400:+_ENSG00000065978_ENST00000321358|hu_mus|motif|central (ssRNA)
RNA: GGGAGUUCUACAGUCCGACGAUCAUUCUGGUAAUUUUGCUGGUAAUUGCGUGGAGGACCCCUACGACGUGGAUAGCGUCGGUAAUGGUUACGGUCUGCUGCGUAUUUACUGCCUUGAACUGGAACUCCACCAGGGCCUGUAACCAACAGAGGAUUGAGCAUCA
B12: chr7:5108331:5108332:+_ENSG00000146587_ENST00000396912|hu_hu|FALSE|FALSE (ssRNA)
RNA: GGGAGUUCUACAGUCCGACGAUCUUGCACAUGUGCCUUAAGAUAGUUCUGUUUUGUGCAGUUUUAGGCUAUAAAUAUUCUAGUGCAUGUCCUUUGGUGGACAGACACAUGCAUUUUUGCUGGGUUUGGGUAAAACAGUAUACACAACAGAGGAUUGAGCAUCA
B13: chr5:37680062:37680063:+_ENSMUSG00000029121_ENSMUST00000031004|mus_hu|mus_mus_mus_hu_False|1_58 (ssRNA)
RNA: GGGAGUUCUACAGUCCGACGAUCUUUGGGUGUAGCUGGUACCUCGUACACAGGACCGUCAUACAUGCCCCUGGAAACACUAUGCAAUCCAAAAACCUUAUUCCUGAUUUUGACGCGCUGGUACAGGUGCUCCGGGAAUGGCUUCAACAGAGGAUUGAGCAUCA
B14: chr4:148702617:148702618:-_ENSMUSG00000028960_ENSMUST00000103212|mus_mus|FALSE|FALSE (ssRNA)
RNA: GGGAGUUCUACAGUCCGACGAUCGUUGGGAACUGAACAGAGCACAGGCUGUGGAGCAGAGGAGAAAGGAAAAGAGGAGGAAGUCUGUUUCUGAAGAGUUCAUUUCUUUAAAACACUUUAUGGUUUCAAAUCCUUUCUCACCCCCAACAGAGGAUUGAGCAUCA
B15: chr2:216981417:216981418:+_ENSG00000079246_ENST00000392132|hu_hu|hu_hu_hu_mus_True|58_58 (ssRNA)
RNA: GGGAGUUCUACAGUCCGACGAUCCUGAUACUGGUCCUUGCCAGCAAGGGCAUUAUCAGUGCCAUCUGUGCCAUAGAGGACUAAAGCAAUCUCAUCUUUGCUCUCCGAAAAUACCUGUCGUUGGACAAACAUAGUCAUCACUUUCAACAGAGGAUUGAGCAUCA
B16: chr4:42003652:42003653:+_ENSG00000014824_ENST00000513699|hu_hu|motif|central (ssRNA)
RNA: GGGAGUUCUACAGUCCGACGAUCGGUACCAAUAUAUGGAUGACUACAGGGAACCAUGUUUGAAAAGCUUCCAAAUGUCACGGAAUUCUGCCACUCCUGGCGGUCGCUGGGAUUACAGGCCGCCGCCCUGCAUCGCAGACGGAGCAACAGAGGAUUGAGCAUCA
B17: chr11:61589858:61589859:-_ENSMUSG00000004798_ENSMUST00000004920|mus_hu|motif|central (ssRNA)
RNA: GGGAGUUCUACAGUCCGACGAUCUUCAAGAAUAAUGCAUGCAGUUACAAAUGAGAGGUAGAAACACUGUAUUAAAGACCGGAAAAUACAAACGUCAUAUAAAUAAAUGUUCAAAUUAACUACUGGAAUUUCAUACAGAUAAAUCAACAGAGGAUUGAGCAUCA
B18: chr18:10004928:10004929:-_ENSMUSG00000047879_ENSMUST00000092096|mus_hu|motif|central (ssRNA)
RNA: GGGAGUUCUACAGUCCGACGAUCCUGAAGUCGCAAUUUAAGUCCUGUAAAAAGAUACUUGACUUCCUGAUUGAUAAAACAGCGGAGCUGAAGUUGAUUUUCCUUUCCUUUGGUGACUUCUUCUUCUUCAGAUUCUGUACAUUUCAACAGAGGAUUGAGCAUCA
B19: chr15:52101961:52101962:+_ENSG00000128872_ENST00000249700|hu_hu|FALSE|FALSE (ssRNA)
RNA: GGGAGUUCUACAGUCCGACGAUCUAUUUUCCUAUUCACUUGUUUUAUUGCUACUAGGCAACUCAGGAACACUCAGCUACUAAACAAAUUCUGGAAUUUGUUUAGUAACAAAUUACAGAGAAAAGAGGAAAAAAAAGACAAUGACAACAGAGGAUUGAGCAUCA
B20: chr12:39763582:39763583:-_ENSG00000139116_ENST00000544797|hu_mus|hu_hu_hu_mus_False|48_48 (ssRNA)
RNA: GGGAGUUCUACAGUCCGACGAUCCUCUAGGAACUGGGCAUUCACUUUGAAUUCAGGAGGGGGCAGCCCGUUUUUAAUCGCUGAGGUUUUUUUUUCUUCAAUACUCUUGAACAGGUGUCUAACAGCACGAGAGAUGAUGCCCUGCAACAGAGGAUUGAGCAUCA
B21: chr11:95532463:95532464:+_ENSG00000166037_ENST00000540830|hu_hu|FALSE|FALSE (ssRNA)
RNA: GGGAGUUCUACAGUCCGACGAUCCUUACUUGGGGAGCGUCGUAGAUCACUAUUAAGGAAAGGCUUAUCCGAAGGAUAUACUACAUAUGGAGAUGAAGAAUGCCGAACCAUGCUUCCAUUAGACCUUGAUGGCUCAGCAAAGCUCAACAGAGGAUUGAGCAUCA
B22: chr2:202488911:202488912:-_ENSG00000155755_ENST00000286196|hu_mus|hu_hu_hu_mus_False|58_108 (ssRNA)
RNA: GGGAGUUCUACAGUCCGACGAUCAUUUAACAUUUUUUCAUAAUCUCCAGUAGCAUUUCAGCAUUAUGUAACAAAAGAUCUAUUACAAAUACAUGUAUCUUAUAAAAAUACACUUAAAAACACGAGUGGGGAGCGCAGGCGCCACAACAGAGGAUUGAGCAUCA

target: T1, UNK ZnF1-3 (human, UniProt Q9C0B0 31-174); test: nsRBNS (natural sequence RNA bind-n-seq); RBNS binding buffer (assumed for nsRBNS): 25 mM Tris pH 7.5, 150 mM KCl, 3 mM MgCl2, 0.01% Triton X-100, 500 ug/ml BSA, 20 U/ml SUPERase-In, 4 C; UNK is unkempt and MSI1 is Musashi-1; names of the RNAs are library labels; protein concentration not given here; high values mean tight binding
T1 sequence: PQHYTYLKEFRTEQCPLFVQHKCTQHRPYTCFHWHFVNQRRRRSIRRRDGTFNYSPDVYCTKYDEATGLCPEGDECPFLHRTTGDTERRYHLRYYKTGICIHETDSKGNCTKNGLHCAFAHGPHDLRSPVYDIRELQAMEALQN

Question: For B1, which binding signal is on record?
Answer: Its binding signal is 0.983 enrichment R.

Question: For B2, which binding signal is on record?
Answer: Its binding signal is 0.45 enrichment R.

Question: With B3 as the binder, how does the binding signal read?
Answer: The binding signal was 0.79 enrichment R.

Question: B4 was tested. Which binding signal did it give?
Answer: Its binding signal is 0.403 enrichment R.

Question: B5 was tested. Which binding signal did it give?
Answer: Its binding signal is 1.02 enrichment R.

Question: Which binding signal does the source give for B6 here?
Answer: The binding signal was 0.448 enrichment R.

Question: Which binding signal does the source give for B7 here?
Answer: Its binding signal is 0.667 enrichment R.

Question: For B8, which binding signal is on record?
Answer: The binding signal was 1.24 enrichment R.

Question: For B9, which binding signal is on record?
Answer: Its binding signal is 0.808 enrichment R.

Question: How did the binding signal turn out when B10 was run?
Answer: The binding signal was 0.752 enrichment R.

Question: How did the binding signal turn out when B11 was run?
Answer: The binding signal was 0.55 enrichment R.

Question: For B12, which binding signal is on record?
Answer: The binding signal was 0.692 enrichment R.

Question: B13 was tested. Which binding signal did it give?
Answer: Its binding signal is 0.626 enrichment R.

Question: With B14 as the binder, how does the binding signal read?
Answer: Its binding signal is 1.44 enrichment R.

Question: With B15 as the binder, how does the binding signal read?
Answer: Its binding signal is 0.747 enrichment R.

Question: Which binding signal does the source give for B16 here?
Answer: The binding signal was 1.6 enrichment R.

Question: How did the binding signal turn out when B17 was run?
Answer: The binding signal was 1.5 enrichment R.

Question: Which binding signal does the source give for B18 here?
Answer: The binding signal was 0.67 enrichment R.

Question: For B19, which binding signal is on record?
Answer: The binding signal was 1.28 enrichment R.

Question: With B20 as the binder, how does the binding signal read?
Answer: The binding signal was 1.47 enrichment R.

Question: For B21, which binding signal is on record?
Answer: Its binding signal is 0.815 enrichment R.

Question: With B22 as the binder, how does the binding signal read?
Answer: The binding signal was 1.08 enrichment R.
